B1: tRNA (parent)
chain: CUCUCGGUAGCCAAGUUGGUUUAAGGCGCAAGACUUUAAUUUAUCACUACGAAAUCUUGAGAUCGGGCGUUCGACUCGCCCCCGGGAGAUUUUUUCCUCGAGCAA

Variants at the background level are over-represented here.

Variants of B1 are the subject of the series. The series can be described thus: nonsense suppression (GFP-seq) (ratio to wild type); higher = more function; SUP4oc tRNA, yeast GFP reporter sort-seq. The essentials: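 Sorted GFP/RFP bins of yeast were each Illumina-sequenced with a phred ≥30 cutoff; the cells held a genome-integrated ochre-suppressor tRNA variant from a library with ~3% random mutations, a galactose-driven GFP ochre reporter, and RFP. Culture was in raffinose/galactose medium containing 80 mg/L adenine. Nonsense suppression, termed GFPSEQ, is the median GFP/RFP of the bins weighted by each variant's estimated cell share per bin, relative to the unmutated parent tRNA, for variants reaching ≥100 reads and ≥30 cells.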
As to U2G A60C C75G, the nonsense suppression is not above 0.026.
For G15C G18U A30C G69C, the nonsense suppression was not above 0.026.
As for G19U C29A G59A C75A, the figure is not above 0.026.
As for G10A G18U A74G, the figure is not above 0.026; as for U8A U57G G59A C75A G86C, not above 0.026.
As to U8C A13G A14C G26U, the nonsense suppression was not above 0.026.
As to C27U C29U A89C, the nonsense suppression was not above 0.026.
In the case of G10C G28U U63A C75G, the nonsense suppression was not above 0.026.
Regarding C56G C64G G67A G86C, the nonsense suppression was not above 0.026.
Take U22G G66C U71C C79U: the nonsense suppression was not above 0.026.
As to C5G G15U A30C, the nonsense suppression was not above 0.026.
For the variant C29U C72A, the nonsense suppression is not above 0.026.
Take A54C C81A: the nonsense suppression is not above 0.026.
As for G65C C81A, the figure is not above 0.026; as for G65U U70C G78A, not above 0.026; as for A13C G28C, 0.794.
Take U17G G86A: the nonsense suppression is not above 0.026.
Regarding C3A G61A, the nonsense suppression was not above 0.026.
Consider C1G A24U U55G, for which the nonsense suppression was not above 0.026.
As to A33U C68A, the nonsense suppression was not above 0.026.
For the variant U17C G86A A87C, the nonsense suppression was not above 0.026.
As for A33U U58C G61U U63C C81U, the figure is not above 0.026.
As to U17C U76G, the nonsense suppression was not above 0.026.
In the case of C1G G26C, the nonsense suppression was not above 0.026.
On to C11A G18C G66C G67A U71A A87G, for which the nonsense suppression was not above 0.026.
In the case of G7A A24C A60C G88U A89C, the nonsense suppression is not above 0.026.
Take A9U C11U A23C A24G A33U G61C A89G: the nonsense suppression was not above 0.026.
In the case of C3U A30G G73A, the nonsense suppression was not above 0.026.
Turning to U16G U20A G67C G84U, the nonsense suppression was not above 0.026.
Consider U71C C77A C82G, for which the nonsense suppression is not above 0.026.
As for G15C U22G A60U C81G, the nonsense suppression was not above 0.026.
As for U8A A9G U57C U63A, the figure is not above 0.026.
Regarding C34G C72U C79G, the nonsense suppression is not above 0.026.
As for G10A A30C C34A A89G, the figure is not above 0.026.
As to C11G G78U G88C, the nonsense suppression is not above 0.026.
With U20G, the nonsense suppression worked out at 0.989.
As for A13C A23U G67U C79G G88A, the figure is not above 0.026; as for G26U A62G, not above 0.026; as for C1A U8C G67A, not above 0.026.
Take A23U C64U G66C A87U: the nonsense suppression was not above 0.026.
With C1G U58G, the nonsense suppression is not above 0.026.
Take G69C U76G G88C: the nonsense suppression is not above 0.026.
With G15C A33G, the nonsense suppression is not above 0.026.
Turning to A30G U70G A87G, the nonsense suppression was not above 0.026.
As for A9U U58C U76G, the nonsense suppression is not above 0.026.
For U4C A14G G61A U71A, the nonsense suppression was not above 0.026.
As for U2A G32U C34U, the figure is not above 0.026.
For the variant U57A C75U, the nonsense suppression amounted to 0.03.
C11G U17G: the nonsense suppression was not above 0.026.
As for C34G C81U, the figure is not above 0.026.
As for U57A C83U G88C A89C, the figure is not above 0.026.
As to C1A U71C C77G, the nonsense suppression was not above 0.026.
For the variant G19U U55C G67A, the nonsense suppression was not above 0.026.
For C5U G84A, the nonsense suppression came out at 1.15.
In the case of A13C A23U A62G C82A, the nonsense suppression is not above 0.026.
In the case of G25U C34G, the nonsense suppression was not above 0.026.
Take G7C C11G C79A: the nonsense suppression is not above 0.026.
Regarding A24C C64G G78C, the nonsense suppression was not above 0.026.
As to C5G C12A G59U, the nonsense suppression is not above 0.026.
In the case of C5U G10U G15C C34G U63A, the nonsense suppression was not above 0.026.
As to A24U G66C, the nonsense suppression is not above 0.026.
As for G18A G26U, the nonsense suppression is not above 0.026.
As to C1A A60G, the nonsense suppression was not above 0.026.
Turning to G10C C77U, the nonsense suppression is not above 0.026.
As for A54C C82U, the figure is 0.211.
In the case of A60U G73C, the nonsense suppression was not above 0.026.
Turning to A30G C79G, the nonsense suppression was not above 0.026.
For A13G U21G C83A, the nonsense suppression was not above 0.026.
As to G18C C56A, the nonsense suppression is not above 0.026.
In the case of A24G G59C, the nonsense suppression is not above 0.026.
On to A33G U55A G78U, for which the nonsense suppression was not above 0.026.
Consider A31C G65U, for which the nonsense suppression was not above 0.026.
Take G6A C11A A33G: the nonsense suppression was not above 0.026.
With U70G C81A, the nonsense suppression was not above 0.026.
In the case of A9C U70G, the nonsense suppression is not above 0.026.
With C1G G26A G32U G66A, the nonsense suppression was not above 0.026.
As for U4C A13G, the figure is 0.774; as for C12U A13U C79U, 0.0331.
With G19U C79A, the nonsense suppression was not above 0.026.
U16A A54U: the nonsense suppression was 1.06.
For the variant A62U G67A G86C, the nonsense suppression was not above 0.026.
In the case of G25C U55A G66A, the nonsense suppression is not above 0.026.
On to U76A G84C A89U, for which the nonsense suppression is not above 0.026.
Consider A23G A30U G66U, for which the nonsense suppression was not above 0.026.
Turning to G6C U20G A30G, the nonsense suppression was not above 0.026.
As for C1A G61U, the nonsense suppression was not above 0.026.
U20A A60U C79U: the nonsense suppression amounted to 0.212.
As for C3G U55G C83U G84C, the figure is not above 0.026; as for A14U G69C, not above 0.026; as for A23C A31U G66U, not above 0.026.
As for G10U G19U G67C, the nonsense suppression was not above 0.026.
Turning to C5G C11A G15U A87C, the nonsense suppression was not above 0.026.
As for C3U C5U U21G U57C, the figure is not above 0.026; as for U17C U55C U76G, not above 0.026.
Turning to A9U A33U C81U A87G, the nonsense suppression is not above 0.026.
As for U4G A13U C79A, the figure is not above 0.026.
As for C5U A14G U55G, the figure is not above 0.026.
C3U C27G G66C: the nonsense suppression was not above 0.026.
With C5U U8G C11A A24C A89U, the nonsense suppression is not above 0.026.
For G61A U70A A89G, the nonsense suppression is not above 0.026.
U21G A74U C82A: the nonsense suppression is not above 0.026.
Consider G28U A31G A54G, for which the nonsense suppression is not above 0.026.
G26A G67C A74G: the nonsense suppression was not above 0.026.
As for U21C C75G U76G C79A C83A, the figure is not above 0.026.
In the case of U17C G28A G59C G61C, the nonsense suppression was not above 0.026.
As for C12A A23U, the figure is not above 0.026; as for U17C G66A A89G, not above 0.026.
As for A24G U35G U57A, the figure is not above 0.026; as for C81G A87U, not above 0.026; as for G18A G67A, not above 0.026.
Turning to C82A A89G, the nonsense suppression was not above 0.026.
As for U21C C64A, the figure is not above 0.026.
Regarding G28U A62G U63A A74C, the nonsense suppression is not above 0.026.
For the variant U20C C34U C81G, the nonsense suppression was not above 0.026.
Turning to G26U C29G, the nonsense suppression was not above 0.026.
On to C1G, for which the nonsense suppression is not above 0.026.
In the case of U55C G66U, the nonsense suppression was not above 0.026.
On to G61U G69C U70A U76G C83A, for which the nonsense suppression is not above 0.026.
On to C3U G61A, for which the nonsense suppression amounted to 0.198.
As for U2G A9G U76A, the figure is not above 0.026; as for A13U G59C U63C C83G, not above 0.026; as for U2A G32C C72U, not above 0.026.
As to C11G A23G C34A C81U, the nonsense suppression is not above 0.026.
As for G6U U21A A74G, the figure is not above 0.026; as for C1A A24G C29G U70G, not above 0.026; as for C11G G66A G69C, 0.0424.
Take A9U G65A G67A C72A: the nonsense suppression was not above 0.026.
As for U20C U76C, the figure is 0.228; as for G10C G15U A23U C56U, not above 0.026; as for A9G A23G U71A C79U G88A, not above 0.026.
Turning to G15C A24U C64G A89G, the nonsense suppression is not above 0.026.
Take G6C A31C: the nonsense suppression is not above 0.026.
For the variant C3G C11G, the nonsense suppression is not above 0.026.
With A87C G88U, the nonsense suppression was not above 0.026.
As for C1G A87G, the figure is not above 0.026; as for U4C G7U, 0.202.
In the case of G10C C11U U35G A54U A62C U70A G78U C83U, the nonsense suppression was not above 0.026.
As for G66C, the figure is not above 0.026; as for U57A G69U C77A, not above 0.026.
In the case of A14U G32C G88U, the nonsense suppression is not above 0.026.
Regarding G65A U70G G84U, the nonsense suppression was not above 0.026.
Turning to G61C G67U, the nonsense suppression is not above 0.026.
With A24C G66A C77G, the nonsense suppression is not above 0.026.
For the variant G25U A33U U55A C77G, the nonsense suppression was not above 0.026.
As to C1G U2A C27U, the nonsense suppression was not above 0.026.
As for A31G C56U, the figure is not above 0.026; as for G61C G69A G84A, not above 0.026; as for U22G G67C, not above 0.026.
For U2A G26A G67U, the nonsense suppression was not above 0.026.
Regarding U2G A30C, the nonsense suppression was not above 0.026.
As to C11G U57G A60U C83U, the nonsense suppression was not above 0.026.
For U2A G59C G85A, the nonsense suppression was not above 0.026.
Regarding U20C A24U U57G C68U, the nonsense suppression was not above 0.026.
On to A23U C34U G67C, for which the nonsense suppression is not above 0.026.
A13U C29G A30U C56A: the nonsense suppression was not above 0.026.
As for A13U G65U G84U, the figure is not above 0.026; as for G66C G85A, not above 0.026.
As for C5A G78U, the figure is 0.0303.
As to C11A A33G U35A U58G G61C, the nonsense suppression was not above 0.026.
Turning to U4C C83U, the nonsense suppression was 1.17.
Regarding C3U G25U A33C C72G A87C, the nonsense suppression was not above 0.026.
As for C12G G86U, the nonsense suppression was not above 0.026.
In the case of A13U U22G, the nonsense suppression turned out to be 1.06.
As for G6C A24C G69A A74C A87C, the figure is not above 0.026.
In the case of A9C C11U C27U, the nonsense suppression was not above 0.026.
With C34U A74G G86A, the nonsense suppression was not above 0.026.
As for C1U U76G, the nonsense suppression was not above 0.026.

(Values after the RNAGym collection of RNA variant scans (doi:10.1101/gad.245936.114).)
